Experimental data as given in article PMC9574860, “Chemical Toolkit for PARK7: Potent, Selective, and High-Throughput” (Journal of Medicinal Chemistry, 2022).
About 400 (5.1%) of roughly 7,900 compounds showed an effect of 50% or more. The list shows a part of the results.

Each molecule was assayed against Parkinson's disease protein 7 (PARK7/DJ1) (human, UniProt Q99497) (assay: primary screen, percent inhibition; read as competition with a fluorescent probe by fluorescence polarization; higher = more effect of the substance). Details: 100 µM.
In short: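 Fluorescence-polarization probe displacement (JYQ-107, 20 nM final, 2 h) after 2 h preincubation of PARK7 (0.2 μM final) with each fragment at 100 μM final. Read-out ex/em 480/520 nm; remaining activity derived from FP signal loss relative to reference controls.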

Chain of Parkinson's disease protein 7 (PARK7/DJ1) (Q99497 whole entry, looked up, the tested form may be a part): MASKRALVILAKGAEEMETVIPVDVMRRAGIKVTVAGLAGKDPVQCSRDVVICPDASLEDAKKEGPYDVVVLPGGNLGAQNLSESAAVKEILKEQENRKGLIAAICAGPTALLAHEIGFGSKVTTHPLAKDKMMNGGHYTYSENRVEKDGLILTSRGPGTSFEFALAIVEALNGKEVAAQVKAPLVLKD

| SMILES | Inhibition % [%] |
| --- | --- |
| CN(CC12CC3CC(CC(C3)C1)C2)C(=O)CCl | 9.71 |
| Cn1cc(C=C(C#N)c2ccc3ccccc3n2)cn1 | 4.42 |
| CNC(=O)C(C#N)=C1SC(C)C(=O)N1c1ccc(C)cc1 (stereo not shown) | 7.7 |
| Cc1ccccc1C1=NC(=Cc2cnn(C)c2)C(=O)O1 | 12.4 |
| C=CC(=O)Nc1cccc(-c2cn3c(n2)CCCC3)c1 | 14.3 |
| O=C(CCl)Nc1ccc2c(c1)OC(F)(F)O2 | 37.9 |
| C=CC(=O)N(C)Cc1cn2c(n1)CCCC2.O=C(O)C(F)(F)F | 2.8 |
| C=CC(=O)NCC1CCOC1c1c(C)nn(C)c1C (stereo not shown) | 4.65 |
| COCc1cc(C#N)no1 | 3.95 |
| C=CC(=O)NCC1CCC2(CCCCC2)O1 (stereo not shown) | 6.23 |
| N#Cc1nc(N2CCOCC2)ccc1Cl | 8.71 |
| Cc1cccc(CN2CCN(C(=O)CCl)CC2)c1.Cl | 5.99 |
| C=CC(=O)N1CC2CC1(C(N)=O)C2 | 1.3 |
| Cc1ccc(CN(C)C(=O)CCl)c(C)c1 | 65.7 |
| O=C1OCCC1N1CCN(c2ccccc2F)CC1 (stereo not shown) | 5.08 |
| CC1CN(C(=O)C=Cc2ccnn2C)CCO1 (stereo not shown) | 0.988 |
| C=CC(=O)N1CCCC1Cc1cccc(OC)c1 (stereo not shown) | 6.77 |
| C=CC(=O)Nc1cc(O)nc2c1CCC2 | 7.33 |
| CN(C)C=CC(=O)C1CCCCC1 | 5.4 |
| O=C(Cc1ccc(S(=O)(=O)F)cc1)Nc1ccccc1Cl | 12.8 |
| Cc1nc(C=CC(=O)N2CCCC(C)C2CN)cs1 (stereo not shown) | 4.49 |
| CCc1nc(C#N)c(NCc2ccncc2)o1 | 9.41 |
| Cn1c(=O)oc2cc(C(=O)CCl)ccc21 | 0.517 |
| C=CC(=O)N1CCNC(=O)C1c1ccccc1Cl (stereo not shown) | 8.11 |
| COc1ccc(O)c(C=O)c1 | 19.6 |
| N#Cc1ccc(N2CCOC(c3cccs3)C2)cn1 (stereo not shown) | 4.98 |

| SMILES | Inhibition % [%] |
| --- | --- |
| C=CC(=O)NC1CC2CCC1(C)C2(C)C (stereo not shown) | 12.8 |
| C=CC(=O)Nc1noc2ccccc12 | 6.75 |
| O=C1CCC(=O)N1CCC(=O)N1CCCc2ccccc21 | 6.54 |
| NS(=O)(=O)C=Cc1ccc(F)cc1 | 7.7 |
| O=C1CCS(=O)(=O)O1 | 5.42 |
| Cc1cc(C)c(NC(=O)CCl)c(Cl)c1 | -0.269 |
| Cc1nnc(CCCCl)o1 | 5.68 |
| CCc1cccc2c(C=C(C#N)C(N)=O)c[nH]c12 | 8.29 |
| O=C(NNS(=O)(=O)c1ccc(S(=O)(=O)F)cc1)C1CCC1 | 10.2 |
| O=S(=O)(F)CC1CCOCC1 | 10.5 |
| Cc1nc(C=CC(=O)N2CCCC2c2ccccc2)cs1 (stereo not shown) | 18.9 |
| CCCn1c(C)nnc1CN(C#N)c1cc(C)ccc1F | 20.1 |
| C=CC(=O)NCCC1CCOC1 (stereo not shown) | 4.58 |
| CC(C)(C)OC(=O)N1CCC(CB2OC(C)(C)C(C)(C)O2)CC1 | -1.21 |
| C=CC(=O)N1CCCN(C=O)CC1 | 15.7 |
| CC(C)(C)OC(=O)Nc1ccc(B2OC(C)(C)C(C)(C)O2)cn1 | 5.39 |
| C=CC(=O)N1C[C@@H]2C[C@H]1CS2 | 4.18 |
| CCC(NC(=O)CCl)c1ccc(Br)cc1 (stereo not shown) | 5.16 |
| Cc1cccc(NC(=O)c2ccccc2NC(=O)CCl)c1 | 1.55 |
| O=S(=O)(C=Cc1ccccc1)N1C[C@@H](O)[C@@H](O)C1 | 9.02 |
| C=CC(=O)NC1CCN(C(C)=O)CC1CC (stereo not shown) | 3.91 |
| CCc1ccccc1S(=O)(=O)N[C@H]1CCOC1=O | 5.65 |
| CC1(C)OB(c2ccc(F)cc2C#N)OC1(C)C | 2.79 |
| O=C(NC1CCC(O)CC1)N1CCCCC1C1OCCO1 (stereo not shown) | 7.22 |
| C=CC(=O)NCc1cnc(N2CCOCC2)s1 | 10.4 |
| COc1cc(C=C(C#N)C(N)=O)ccc1OC(F)F | 6.58 |

| SMILES | Inhibition % [%] |
| --- | --- |
| O=C(O)C1CCN(C=CC(=O)C(F)(F)F)CC1 | 7.05 |
| O=C(NCCS(=O)(=O)F)c1ccccc1 | 13.4 |
| CC(O)CCN(C)c1ccc(Cl)c(C#N)n1 (stereo not shown) | 8.44 |
| N#CC=C(Cl)c1ccc(F)cc1 | 2.3 |
| Cc1oncc1C(=O)CCl | 40.2 |
| CC(=O)Nc1cccc(OC(=O)N(C)C)c1 | 10.1 |
| CS(=O)(=O)c1ccc(CNC(=O)CCl)cc1 | 10.2 |
| C=CC(=O)N1CCOCC2(CCCC2)C1 | 2.26 |
| C=CC(=O)Nc1cccc(CN2CCNC(=O)C2)c1 | 5.12 |
| C=CC(=O)NCCN1CCSCC1 | 18.6 |
| N#Cc1ccc(NCCc2cn3c(n2)CCCC3)cn1 | 4.36 |
| Cc1ccc(Oc2cnc(C#N)cn2)cc1F | 7.07 |
| Nc1cc(=O)[nH]c(S)n1 | 6.98 |
| CC1CN(C(=O)CCN2CCSC2=O)C(C)CO1 (stereo not shown) | 4.2 |
| Cn1ncnc1CCNC(=O)c1cccnc1S | 5.98 |
| CC(C)c1cccc(C(C)C)c1NC(=O)CCl | 2.79 |
| COc1ccc(CNC(=O)n2ccnc2)cc1OC | 6.72 |
| CC(C)N(C)C(=O)CCc1ccc(S(=O)(=O)F)cc1 | 4.68 |
| O=C1NCCC1CCCl (stereo not shown) | 4.25 |
| Cl.NC1CN(c2ccccc2)C1=O (stereo not shown) | 14.1 |
| CS(=O)(=O)C(C#N)=Cc1ccc(-c2ccccc2Cl)o1 | 5.87 |
| OB(O)c1ccc(F)cc1OCCc1ccccc1 | 4.69 |
| C=CC(=O)NC1CCC2(CC1)CC2(F)F (stereo not shown) | 3.45 |
| O=C(CCl)Nc1cc(C2CCCC2)nn1-c1ccccc1 | 45.7 |
| CC1CC(N2CC=C(c3ccccc3)CC2)C(=O)O1 (stereo not shown) | 6.64 |
| Cl.N#Cc1ncccc1CN1CCCCC1 | 5.62 |

| SMILES | Inhibition % [%] |
| --- | --- |
| C=CC(=O)N1CC2(CCOCC2)C1C(C)C (stereo not shown) | 7.75 |
| CC1CCC(C)N(C(=O)c2cccc(B(O)O)c2)C1 (stereo not shown) | 2.89 |
| C=CC(=O)NCc1cn(C2CCC2)nn1 | 4.59 |
| C=CC(=O)N1C2CCC1CC(OCC)C2 (stereo not shown) | 13.4 |
| ClCCCn1cccn1 | 5.21 |
| N#Cc1c(NC(=O)CCCl)sc2c1CCC2 | 3.99 |
| Cc1cc(CNC(=O)CCl)ccc1F | 18 |
| CN1CCN(CCCCl)CC1.Cl.Cl | 9.44 |
| C=CC(=O)N1CCC(CN2CCCC2=O)C1 (stereo not shown) | 0.453 |
| CN1CCN(CCC2OCCO2)CC1 | 5.56 |
| CC1(C)NC(=O)N(CCS(=O)(=O)F)C1=O | -4.21 |
| CC(NC(=O)CCl)c1ccc(Br)cc1 (stereo not shown) | 6.1 |
| CC(C)N1CCN(CCCl)CC1.Cl | 10.8 |
| CC1(C)OB(c2ccc(S(=O)(=O)C(F)(F)F)cc2)OC1(C)C | 4.13 |
| C=CC(=O)N[C@@H]1CCO[C@H]1c1ccnn1C(C)C (racemic) | 9.62 |
| Cl.ClCCCN1CCCC1 | 6.72 |
| C=CC(=O)NCc1nccn1C | 8.54 |
| COc1ccc(C(C)(C)C)cc1NC(=O)CCl | 10.8 |
| Cc1ccc(C=CS(=O)(=O)N(C)CC(N)=O)cc1 | 8.82 |
| Cc1nnnn1C(=O)N(C)C | 10.7 |
| COc1ccc(F)cc1S(=O)(=O)n1ccnc1C | 3.76 |
| N#Cc1ccc(N2CCCC(N3CCCCCC3)C2)cn1 (stereo not shown) | 5.26 |
| O=C(CCl)Nc1ccc2c(c1)OCCCO2 | 57.7 |
| N#CC(=Cc1ccco1)C(=O)Nc1nnc(C(F)F)s1 | 4.49 |
| O=S(=O)(OCC1CCCO1)c1ccc(Cl)cc1 (stereo not shown) | 13.5 |
| C=CC(=O)N[C@H]1C[C@H](c2cccc(C)c2)C1 | 6.65 |

| SMILES | Inhibition % [%] |
| --- | --- |
| Cc1nonc1COc1ccc(N2CCC2=O)cc1 | 5.93 |
| N#Cc1ncn(CC(O)c2ccc(C(F)(F)F)cc2)n1 (stereo not shown) | 2.57 |
| Cc1ccccc1-c1noc(=O)[nH]1 | 8.1 |
| CN1C(=O)CSC1=CC#N | 11.6 |
| Cc1ccc(OCC2CO2)c(C)c1 (stereo not shown) | 4.72 |
| O=C(CCl)NCCCC1CCCCC1 | 8.8 |
| O=C(Nc1ccccc1)C1CCCN(C2CCOC2=O)C1 (stereo not shown) | 7.52 |
| COc1ccc(-c2nc(C#N)c(N(C)C)o2)cc1 | 5.62 |
| CN1CCCCC1CCCl.Cl (stereo not shown) | -3.52 |
| COc1cc(Cl)ccc1S(=O)(=O)n1ccnc1C(C)C | 5.37 |
| C=CC(=O)NC1CC(OCc2ccccc2)C1(C)C (stereo not shown) | 1.66 |
| Cc1cccc(C)c1NC(=O)CCl | 6.2 |
| O=S(=O)(c1cccc(F)c1)N1CCCC(C2OCCO2)C1 (stereo not shown) | 1.15 |
| CNC(=O)C(C)(C)Cn1c(S)nc2ccccc2c1=O | 9.98 |
| CCc1n[nH]c(NC(=O)c2cccnc2S)n1 | 3.06 |
| Clc1cnn(CCC2OCCO2)c1 | 9.67 |
| COc1cc(C)c(Cl)cc1S(=O)(=O)n1ccnc1C | 5.78 |
| COc1ccc(S(N)(=O)=O)cc1NC(=O)CCl | 2.41 |
| Sc1nncc(-c2cccs2)n1 | 94.3 |
| Cc1ccc(C=C(C#N)C(=O)N2CCOCC2)s1 | 9.92 |
| CC1CC(N)CCN1C(=O)C=Cc1cncc(F)c1 (stereo not shown) | 3.72 |
| O=C(CCl)NC1(c2ccc3c(c2)OCCO3)CCCC1 | 3.8 |
| O=C(NCc1ccc2c(c1)OCO2)n1ccnc1 | 99.9 |
